# Data as given in the supplement of paper PMC8728848.
# Some of the results follow.
# B1: DC-ASGPR Long (Homo sapiens) (protein)
# chain: MTRTYENFQYLENKVKVQGFKNGPLPLQSLLQRLRSGPCHLLLSLGLGLLLLVIICVVGFQNSKFQRDLVTLRTDFSNFTSNTVAEIQALTSQGSSLEETIASLKAEVEGFKQERQAGVSELQEHTTQKAHLGHCPHCPSVCVPVHSEMLLRVQQLVQDLKKLTCQVATLNNNASTEGTCCPVNWVEHQDSCYWFSHSGMSWAEAEKYCQLKNAHLVVINSREEQNFVQKYLGSAYTWMGLSDPEGAWKWVDGTDYATGFQNWKPGQPDDWQGHGLGGGEDCAHFHPDGGWNDDVCQRPYHWVCEAGLGQTSQESH
# Columns and labels:
# Assay in all cases: glycan array binding signal (z-score within array); higher = stronger binding
# Conditions in all cases: glycan notation: IUPAC condensed, linker removed
# [1] = target: Neu5Ac(a2-3)Gal(b1-3)GlcNAc
# Procedure, shortened: (§1)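 Negative Z-scores can be read as non-binding. The Z-score is calculated within each array and then averaged across arrays of one protein sequence at different concentrations or buffers and across linkers. Arrays, 3228 in all, were curated from the Consortium for Functional Glycomics database and kept only where the protein sequence was available.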
# [2] = target: Neu5Ac(a2-3)Gal(b1-3)GlcNAc(b1-2)Man
# Procedure, shortened: as §1
# [3] = target: Neu5Ac(a2-3)Gal(b1-3)GlcNAc(b1-2)Man(a1-3)[GlcNAc(b1-4)][Neu5Ac(a2-3)Gal(b1-3)GlcNAc(b1-2)Man(a1-6)]Man(b1-4)GlcNAc(b1-4)GlcNAc
# Procedure, shortened: as §1
# [4] = target: Neu5Ac(a2-3)Gal(b1-3)GlcNAc(b1-2)Man(a1-3)[Neu5Ac(a2-3)Gal(b1-3)GlcNAc(b1-2)Man(a1-6)]Man(b1-4)GlcNAc(b1-4)GlcNAc
# Procedure, shortened: as §1
# [5] = target: Neu5Ac(a2-3)Gal(b1-3)GlcNAc(b1-2)[Neu5Ac(a2-3)Gal(b1-3)GlcNAc(b1-4)]Man(a1-6)[Neu5Ac(a2-3)Gal(b1-3)GlcNAc(b1-2)Man(a1-3)]Man(b1-4)GlcNAc(b1-4)GlcNAc
# Procedure, shortened: as §1
# [6] = target: Neu5Ac(a2-3)Gal(b1-3)GlcNAc(b1-3)Gal(b1-3)GlcNAc
# Procedure, shortened: as §1
# [7] = target: Neu5Ac(a2-3)Gal(b1-3)GlcNAc(b1-3)Gal(b1-4)GlcNAc
# Procedure, shortened: as §1
# [8] = target: Neu5Ac(a2-3)Gal(b1-3)GlcNAc(b1-3)GalNAc
# Procedure, shortened: as §1
# [9] = target: Neu5Ac(a2-3)Gal(b1-3)GlcNAc(b1-6)GalNAc
# Procedure, shortened: as §1
# [10] = target: Neu5Ac(a2-3)Gal(b1-3)GlcNAc6S
# Procedure, shortened: as §1
# [11] = target: Neu5Ac(a2-3)Gal(b1-3)[Fuc(a1-4)]GlcNAc
# Procedure, shortened: as §1
# [12] = target: Neu5Ac(a2-3)Gal(b1-3)[Fuc(a1-4)]GlcNAc(b1-3)Gal(b1-3)[Fuc(a1-4)]GlcNAc
# Procedure, shortened: as §1
# [13] = target: Neu5Ac(a2-3)Gal(b1-3)[Fuc(a1-4)]GlcNAc(b1-3)Gal(b1-4)[Fuc(a1-3)]GlcNAc
# Procedure, shortened: as §1
# [14] = target: Neu5Ac(a2-3)Gal(b1-3)[GlcNAc(b1-6)]GalNAc
# Procedure, shortened: as §1
# [15] = target: Neu5Ac(a2-3)Gal(b1-3)[Neu5Ac(a2-6)]GalNAc
# Procedure, shortened: as §1
# [16] = target: Neu5Ac(a2-3)Gal(b1-3)[Neu5Ac(a2-6)]GlcNAc(b1-3)[Fuc(a1-3)[Gal(b1-4)]GlcNAc(b1-6)]Gal(b1-4)Glc
# Procedure, shortened: as §1
# [17] = target: Neu5Ac(a2-3)Gal(b1-3)]Neu5Ac(a2-3)Gal(b1-4)]GlcNAc
# Procedure, shortened: as §1
# Neu5Ac(a2-3)Gal(b1-4)Glc = target: Neu5Ac(a2-3)Gal(b1-4)Glc
# Procedure, shortened: as §1
# [18] = target: Neu5Ac(a2-3)Gal(b1-4)GlcNAc
# Procedure, shortened: as §1
# [19] = target: Neu5Ac(a2-3)Gal(b1-4)GlcNAc(b1-2)Man
# Procedure, shortened: as §1
# [20] = target: Neu5Ac(a2-3)Gal(b1-4)GlcNAc(b1-2)Man(a1-3)[GlcNAc(b1-4)][Neu5Ac(a2-3)Gal(b1-4)GlcNAc(b1-2)Man(a1-6)]Man(b1-4)GlcNAc(b1-4)GlcNAc
# Procedure, shortened: as §1
# [21] = target: Neu5Ac(a2-3)Gal(b1-4)GlcNAc(b1-2)Man(a1-3)[Neu5Ac(a2-3)Gal(b1-4)GlcNAc(b1-2)Man(a1-6)]Man(b1-4)GlcNAc(b1-4)GlcNAc
# Procedure, shortened: as §1
# [22] = target: Neu5Ac(a2-3)Gal(b1-4)GlcNAc(b1-2)Man(a1-3)[Neu5Ac(a2-3)Gal(b1-4)GlcNAc(b1-2)Man(a1-6)]Man(b1-4)GlcNAc(b1-4)[Fuc(a1-6)]GlcNAc
# Procedure, shortened: as §1
# [23] = target: Neu5Ac(a2-3)Gal(b1-4)GlcNAc(b1-2)Man(a1-3)[Neu5Ac(a2-6)Gal(b1-4)GlcNAc(b1-2)Man(a1-6)]Man(b1-4)GlcNAc(b1-4)GlcNAc
# Procedure, shortened: as §1
# [24] = target: Neu5Ac(a2-3)Gal(b1-4)GlcNAc(b1-2)[Neu5Ac(a2-3)Gal(b1-4)GlcNAc(b1-4)]Man(a1-3)[GlcNAc(b1-4)][Neu5Ac(a2-3)Gal(b1-4)GlcNAc(b1-2)[Neu5Ac(a2-3)Gal(b1-4)GlcNAc(b1-6)]Man(a1-6)]Man(b1-4)GlcNAc(b1-4)GlcNAc
# Procedure, shortened: as §1
# [25] = target: Neu5Ac(a2-3)Gal(b1-4)GlcNAc(b1-2)[Neu5Ac(a2-3)Gal(b1-4)GlcNAc(b1-4)]Man(a1-3)[GlcNAc(b1-4)][Neu5Ac(a2-3)Gal(b1-4)GlcNAc(b1-4)Man(a1-6)]Man(b1-4)GlcNAc(b1-4)GlcNAc
# Procedure, shortened: as §1
# [26] = target: Neu5Ac(a2-3)Gal(b1-4)GlcNAc(b1-2)[Neu5Ac(a2-3)Gal(b1-4)GlcNAc(b1-6)]Man(a1-6)[Neu5Ac(a2-3)Gal(b1-4)GlcNAc(b1-2)Man(a1-3)][GlcNAc(b1-4)]Man(b1-4)GlcNAc(b1-4)GlcNAc
# Procedure, shortened: as §1
# [27] = target: Neu5Ac(a2-3)Gal(b1-4)GlcNAc(b1-3)Gal
# Procedure, shortened: as §1
# [28] = target: Neu5Ac(a2-3)Gal(b1-4)GlcNAc(b1-3)Gal(b1-3)GlcNAc
# Procedure, shortened: as §1
# [29] = target: Neu5Ac(a2-3)Gal(b1-4)GlcNAc(b1-3)Gal(b1-4)GlcNAc
# Procedure, shortened: as §1
# [30] = target: Neu5Ac(a2-3)Gal(b1-4)GlcNAc(b1-3)Gal(b1-4)GlcNAc(b1-2)Man(a1-3)[Neu5Ac(a2-3)Gal(b1-4)GlcNAc(b1-3)Gal(b1-4)GlcNAc(b1-2)Man(a1-6)]Man(b1-4)GlcNAc(b1-4)GlcNAc
# Procedure, shortened: as §1
# [31] = target: Neu5Ac(a2-3)Gal(b1-4)GlcNAc(b1-3)Gal(b1-4)GlcNAc(b1-3)Gal(b1-4)GlcNAc
# Procedure, shortened: as §1
# [32] = target: Neu5Ac(a2-3)Gal(b1-4)GlcNAc(b1-3)Gal(b1-4)GlcNAc(b1-3)Gal(b1-4)GlcNAc(b1-2)Man(a1-3)[Neu5Ac(a2-3)Gal(b1-4)GlcNAc(b1-3)Gal(b1-4)GlcNAc(b1-3)Gal(b1-4)GlcNAc(b1-2)Man(a1-6)]GalNAc
# Procedure, shortened: as §1
# [33] = target: Neu5Ac(a2-3)Gal(b1-4)GlcNAc(b1-3)Gal(b1-4)GlcNAc(b1-3)GalNAc
# Procedure, shortened: as §1
# [34] = target: Neu5Ac(a2-3)Gal(b1-4)GlcNAc(b1-3)Gal(b1-4)GlcNAc(b1-3)[Neu5Ac(a2-3)Gal(b1-4)GlcNAc(b1-3)Gal(b1-4)GlcNAc(b1-6)]GalNAc
# Procedure, shortened: as §1
# [35] = target: Neu5Ac(a2-3)Gal(b1-4)GlcNAc(b1-3)Gal(b1-4)GlcNAc(b1-6)[Gal(b1-3)]GalNAc
# Procedure, shortened: as §1
# [36] = target: Neu5Ac(a2-3)Gal(b1-4)GlcNAc(b1-3)Gal(b1-4)[Fuc(a1-3)]GlcNAc
# Procedure, shortened: as §1
# [37] = target: Neu5Ac(a2-3)Gal(b1-4)GlcNAc(b1-3)GalNAc
# Procedure, shortened: as §1
binder,measurement,setting,value
B1,glycan array binding signal (z-score),[1],-0.361
same,glycan array binding signal (z-score),[2],-0.505
same,glycan array binding signal (z-score),[3],0.1
same,glycan array binding signal (z-score),[4],0.516
same,glycan array binding signal (z-score),[5],0.483
same,glycan array binding signal (z-score),[6],-0.601
same,glycan array binding signal (z-score),[7],-0.511
same,glycan array binding signal (z-score),[8],0.133
same,glycan array binding signal (z-score),[9],4.59
same,glycan array binding signal (z-score),[10],-0.256
same,glycan array binding signal (z-score),[11],0.116
same,glycan array binding signal (z-score),[12],-0.273
same,glycan array binding signal (z-score),[13],-0.162
same,glycan array binding signal (z-score),[14],-0.325
same,glycan array binding signal (z-score),[15],0.59
same,glycan array binding signal (z-score),[16],-0.251
same,glycan array binding signal (z-score),[17],-0.176
same,glycan array binding signal (z-score),Neu5Ac(a2-3)Gal(b1-4)Glc,-0.302
same,glycan array binding signal (z-score),[18],-0.21
same,glycan array binding signal (z-score),[19],-0.097
same,glycan array binding signal (z-score),[20],-0.066
same,glycan array binding signal (z-score),[21],-0.251
same,glycan array binding signal (z-score),[22],-0.062
same,glycan array binding signal (z-score),[23],-0.355
same,glycan array binding signal (z-score),[24],-0.053
same,glycan array binding signal (z-score),[25],-0.084
same,glycan array binding signal (z-score),[26],-0.537
same,glycan array binding signal (z-score),[27],-0.443
same,glycan array binding signal (z-score),[28],-0.025
same,glycan array binding signal (z-score),[29],-0.227
same,glycan array binding signal (z-score),[30],-0.411
same,glycan array binding signal (z-score),[31],-0.309
same,glycan array binding signal (z-score),[32],-0.104
same,glycan array binding signal (z-score),[33],-0.242
same,glycan array binding signal (z-score),[34],-0.229
same,glycan array binding signal (z-score),[35],-0.484
same,glycan array binding signal (z-score),[36],-0.506
same,glycan array binding signal (z-score),[37],0.084
